The test deals with T1, ERα36 (Homo sapiens, UniProt P03372).
T1 construct: made in house; host or cells: chemical synthesis (no expression host)
T1 sequence (P03372 284-310 isoform P03372-4 limits assumed): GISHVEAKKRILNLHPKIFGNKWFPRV
The test is described as follows: ELISA of re-natured ScFv binding to ERα36. The procedure: Streptavidin-coated 96-well plates were washed twice with PBS. Biotinylated ERα36 (final concentration of 20 μg/ml) was added into each testing well. The plates were incubated for 2 h at room temperature and washed three times with PBST. Re-natured ScFv samples (100 μl, S14A1r1, S24A2r2, S33A2r1, S41A3r3, S53A1r1, S66A1r1 and S72A2r1) were added into the testing wells respectively. Each ScFv was diluted five times in five gradients, and two parallel wells were loaded with each ScFv at each gradient. The plates were incubated at 37° C. for 1 h. The plates were washed three times with PBST, followed by addition of 100 μl anti-His-6 mouse monoclonal antibody (1:2000 dilution) per well and 1 h incubation at 37° C. The plates were washed three times with PBST, followed by addition of 100 μl goat anti-mouse-HRP (1:2500 dilution) per well and 1 h incubation at 37° C. The plates were washed six times with PBST, followed by addition of 100 μl OPD to develop under the protection from light. The reactions were terminated by adding 50 μl 2M H2SO4 to each well, and data were collected by microplate reader at 490 nm.
One positive control and three negative controls were performed in parallel. The positive control used rabbit anti-ER multi-clonal antibody serum in replacement of the ScFv re-natured sample and goat-anti-rabbit-HRP in replacement of goat-anti-mouse HRP.
In general terms: ELISA stands for enzyme-linked immunosorbent assay.

Where [1] appears, read: ScFv concentration 232.00 μg/ml.

B1: ScFv5: fully human anti-ERα36 single chain antibody, SEQ ID NO: 11 (protein)
scFv: QSALTQPPSASGTPGQRVTVS[letters of about 80 residues omitted]VFGGGTKLTVLGSGGSTITSYNVYYTKLSSSGTQVQLVQSGAEVKKPGESLKISCKGSGYSFTSYWIGWVRQMPGKGLEWMGIIYPGDSDTRYSPSFQGQVTISADKSISTAYLQWSSLKASDTAMYYCASGIYDAFDIWGQGTMVTVSSAS
modifications: scFv5
Consider B1, for which the “OD490 Well1” value by setting is: (ScFv concentration 0.36 μg/ml) 0.124; (ScFv concentration 1.80 μg/ml) 0.148; (ScFv concentration 9.20 μg/ml) 0.168; (ScFv concentration 46.00 μg/ml) 0.676; under setting [1], 0.743. The “OD490 Well2” value (ScFv concentration 0.36 μg/ml) amounted to 0.128; the “OD490 Well2” value (ScFv concentration 1.80 μg/ml) is recorded as 0.137; the “OD490 Well2” value (ScFv concentration 9.20 μg/ml) came to 0.169; the “OD490 Well2” value (ScFv concentration 46.00 μg/ml) was 0.687; the “OD490 Well2” value under setting [1] came to 0.725.

(Values after patent US20110311517A1, “Antibodies and methods for treating estrogen receptor-associated diseases” (SHENOGEN PHARMA GROUP, LTD., priority 2009, published 2011).)
